About 17,000 (4.4%) of roughly 390,000 compounds were called active. This list was built around the results that the source calls inconclusive (neither active nor inactive); the mix of calls is not that of the screen. Calls follow the shape of the dose curve; as a rule, active = well fitted inhibition curve with a large enough effect; inconclusive = small, poorly fitted or top-dose-only effect; inactive = no such curve, though single readings can be large or run the other way. Where the call is inconclusive, the potency comes from a doubtful curve fit.
Each compound was assayed against Lysine-specific demethylase 4A (Homo sapiens) (UniProt O75164) (assay: qHTS Assay for Inhibitors of JMJD2A-Tudor Domain). Settings: AlphaScreen JMJD2A-Tudor / H3K4me3 peptide binding; activity change, negative = inhibition: at 114 µM (top of the series).
Sequence of UniProt O75164 (O75164 whole entry, looked up, the tested form may be a part): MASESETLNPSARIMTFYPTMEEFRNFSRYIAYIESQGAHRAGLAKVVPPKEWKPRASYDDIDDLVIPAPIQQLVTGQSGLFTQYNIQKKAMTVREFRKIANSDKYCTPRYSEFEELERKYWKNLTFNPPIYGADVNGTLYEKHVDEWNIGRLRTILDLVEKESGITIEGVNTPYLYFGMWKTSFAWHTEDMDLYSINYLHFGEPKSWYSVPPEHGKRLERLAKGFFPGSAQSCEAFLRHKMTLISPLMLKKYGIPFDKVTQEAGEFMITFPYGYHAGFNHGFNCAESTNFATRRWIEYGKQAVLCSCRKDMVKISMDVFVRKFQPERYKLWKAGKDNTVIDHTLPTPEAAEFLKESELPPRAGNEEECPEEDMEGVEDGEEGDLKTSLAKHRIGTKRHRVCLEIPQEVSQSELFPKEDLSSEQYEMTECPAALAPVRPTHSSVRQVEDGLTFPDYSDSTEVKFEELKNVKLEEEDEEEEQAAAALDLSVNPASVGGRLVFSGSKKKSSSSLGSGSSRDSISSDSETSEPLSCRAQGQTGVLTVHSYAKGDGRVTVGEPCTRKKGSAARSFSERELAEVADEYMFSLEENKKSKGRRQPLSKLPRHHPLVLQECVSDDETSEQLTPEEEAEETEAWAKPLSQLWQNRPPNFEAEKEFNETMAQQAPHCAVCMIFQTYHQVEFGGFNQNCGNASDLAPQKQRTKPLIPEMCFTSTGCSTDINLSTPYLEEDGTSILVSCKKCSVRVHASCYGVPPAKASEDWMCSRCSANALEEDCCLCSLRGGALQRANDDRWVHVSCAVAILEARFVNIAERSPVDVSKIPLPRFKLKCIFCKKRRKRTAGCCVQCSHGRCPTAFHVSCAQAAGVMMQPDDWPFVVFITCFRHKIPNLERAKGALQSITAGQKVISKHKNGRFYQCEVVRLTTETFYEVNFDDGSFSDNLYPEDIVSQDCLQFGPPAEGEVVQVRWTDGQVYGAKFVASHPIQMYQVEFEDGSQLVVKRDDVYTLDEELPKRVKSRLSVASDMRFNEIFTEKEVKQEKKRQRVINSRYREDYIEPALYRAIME
In the case of `Cc1ccc(NC(=O)c2cc(S(=O)(=O)N3CCOCC3)ccc2Cl)cc1S(=O)(=O)N1CCOCC1`, the Potency is reported as “inactive”. In the case of `Fc1ccc(-n2nnc(-c3cccnc3Cl)n2)cc1`, the Potency is reported as “inactive”. `COC(=O)[C@H](CCSC)NC(=O)c1cc2c(cn1)[nH]c1ccccc12` was tested, and the Potency was inconclusive: 56.2 µM [inhibitor, partial curve]. `O=C(/C=C/c1ccc([N+](=O)[O-])cc1)Nc1ncc([N+](=O)[O-])s1` was tested, and the Potency was “inactive”. `Cc1ccc(S(=O)(=O)O/N=C2/CCCc3occc32)cc1` was tested, and the Potency was inconclusive: 56.2 µM [inhibitor, partial curve]. `CCCC(=O)Nc1ccc2nc(SCC(=O)Nc3nccs3)sc2c1` was tested, and the Potency was active: 79.4 µM. In the case of `COC(=O)c1cccc(C23CC4(C2)[C@H](CN(C)[C@@H]4c2ccccc2)C3c2ccccc2)c1` (stereo partly drawn), the Potency is reported as inconclusive: 56.2 µM [inhibitor, partial curve]. For `CCCN(CCC)C(=O)C1CC(=O)OC12CCOC(C)(C)C2` (stereo not drawn), the Potency was “inactive”. With `NC(=O)Nc1ccc(Oc2ncc(C(F)(F)F)cc2Cl)cc1` the Potency was inconclusive: 39.8 µM [inhibitor, partial curve]. `O=C1C(=O)N(Cc2cccnc2)C(c2cccc([N+](=O)[O-])c2)/C1=C(\O)c1ccc2c(c1)OCCO2` (stereo not drawn) was tested, and the Potency was active: 56.2 µM. `COc1ccc(-c2cn3cccnc3n2)cc1NC(=O)Cc1ccccc1` was tested, and the Potency was “inactive”. In the case of `CN1C(=O)C(C)(C)c2cc(S(=O)(=O)N3CCN(c4cccc(Cl)c4)CC3)ccc21`, the Potency is reported as inconclusive: 28.2 µM [inhibitor, partial curve]. In the case of `COC(=O)c1c(-c2c(Cl)cccc2Cl)noc1NC(=O)NN1CCOCC1`, the Potency is reported as inconclusive: 25.1 µM [inhibitor, partial curve]. With `O=C(c1ccc(OC2CCN(Cc3ccccn3)CC2)cc1)N1CCC[C@H]1CO` the Potency was inconclusive: 39.8 µM [inhibitor, single point]. In the case of `Cc1cc(C)n2c(Nc3ccc(C(C)C)cc3)c(-c3ccsc3)nc2n1`, the Potency is reported as inconclusive: 35.5 µM [inhibitor, full curve, poor fit]. For `COc1cc(CNCc2ccccn2)ccc1OCc1ccc(Cl)cc1Cl`, the Potency was inconclusive: 79.4 µM [inhibitor, partial curve]. With `Oc1ccc(Br)cc1CNc1cccc2cccnc12` the Potency was inconclusive: 50.1 µM [inhibitor, partial curve]. For `O=S(=O)(/N=C(\Nc1ccc(F)cc1)C(F)(F)F)c1ccccc1`, the Potency was inconclusive: 56.2 µM [inhibitor, partial curve]. For `CCN1C[C@@H]2[C@@H]3C(=O)N(C)C(=O)[C@@H]3[C@](Cc3ccccc3)(C1=O)N2C(=O)c1ccc(F)cc1`, the Potency was “inactive”. With `Cn1nnnc1Sc1ncnc2scc(-c3cc4ccccc4o3)c12` the Potency was inconclusive: 28.2 µM [inhibitor, single point]. For `CC1CCC/C(=N/NC(=O)c2ccccc2-n2cccc2)C1` (stereo not drawn), the Potency was “inactive”. With `O=C(OCC12CC3CC(CC(C3)C1)C2)c1ccc(NCc2cc(O)ccc2O)cc1` the Potency was active: 50.1 µM. `CCCCN(CCCNC(=O)CN1N=C(c2ccc(C)cc2)CCC1=O)c1ccccc1` was tested, and the Potency was active: 39.8 µM. With `Cc1csc(NC(=S)Nc2cccc(Cl)c2)n1` the Potency was inconclusive: 56.2 µM [inhibitor, partial curve]. In the case of `Cc1ccc2c(c1)-c1c(cnn1CC(=O)N1CCN(c3ccccc3F)CC1)CO2`, the Potency is reported as “inactive”. For `Oc1ccc(/C(Cc2ccccn2)=N\Nc2ccccc2)c(O)c1`, the activity change, negative = inhibition was inconclusive: -56.2% [inhibitor]. For `COc1cc2c(cc1OC)/C(=C/C(=O)c1ccc(F)cc1)NCC2`, the Potency was inconclusive: 39.8 µM [inhibitor, partial curve, poor fit]. For `O=C(CN1CCOCC1)Nc1ccc(Cl)c(Cl)c1`, the Potency was active: 28.2 µM. `Cc1cc(N2CCN(S(=O)(=O)c3ccc(Cl)cc3)CC2)c2ccccc2n1` was tested, and the Potency was inconclusive: 39.8 µM [inhibitor, full curve, poor fit]. For `CN(C)CCCNC(=O)/C(=C\c1ccc(-c2cccc([N+](=O)[O-])c2)o1)NC(=O)c1ccccc1`, the Potency was inconclusive: 14.1 µM [inhibitor, full curve, poor fit]. In the case of `CCOC(=O)c1c(NC(=S)Nc2cccc(C)c2)sc2c1CC(C)(C)SC2`, the Potency is reported as inconclusive: 31.6 µM [inhibitor, partial curve]. With `Nc1nn(-c2ccccc2)c(N)c1N=Nc1cccc(F)c1` the Potency was active: 35.5 µM. `COc1ccc(CNC(=O)C[C@H]2C[C@H](C(=O)N3CCOCC3)[C@@]3(C)c4[nH]c5cc(-c6ccco6)ccc5c4CCN3C2=O)cc1OC` was tested, and the Potency was inconclusive: 63.1 µM [inhibitor, partial curve, poor fit]. With `CC(=O)Nc1cccc(OCc2cccc(C3Nc4ccccc4C(=O)N3Cc3ccco3)c2)c1` (stereo not drawn) the Potency was active: 31.6 µM. With `Cc1ccc(S(=O)(=O)N(CC(=O)N=Nc2c(O)[nH]c3ccccc23)c2ccc(C)c(C)c2)cc1` the Potency was inconclusive: 44.7 µM [inhibitor, partial curve]. For `CC(C)(C)c1ccc(C(=O)NC(=S)NCc2cccnc2)cc1`, the Potency was inconclusive: 44.7 µM [inhibitor, single point]. With `COc1cccc(/C=C2\SC(=S)N(C(C)C(=O)NC3C=CS(=O)(=O)C3)C2=O)c1` (stereo not drawn) the Potency was inconclusive: 20 µM [inhibitor, full curve]. `Cc1cccc(Cn2c(SCc3ccc(C(=O)NCc4ccccc4F)cc3)nc3ccncc32)c1` was tested, and the Potency was “inactive”. In the case of `COc1ccc(Br)cc1C1Nc2cccc3cccc(c23)N1`, the Potency is reported as inconclusive: 56.2 µM [inhibitor, partial curve]. In the case of `COc1ccc(C(=O)Oc2ccc(/C=N/Nc3ccc(Cl)c(C(=O)O)c3)cc2OC)cc1`, the Potency is reported as inconclusive: 35.5 µM [inhibitor, partial curve, poor fit]. For `O=C(CSc1nnc(-c2ccccc2F)o1)Nc1cccc(C(F)(F)F)c1`, the Potency was “inactive”. `Cc1cc(C)n(CCCNC(=O)c2ccc(C)c(S(=O)(=O)N3CCOCC3)c2)n1` was tested, and the Potency was inconclusive: 89.1 µM [inhibitor, single point]. `Cc1cccc(C(=O)NCC(c2cccs2)N2CCOCC2)c1` (stereo not drawn) was tested, and the Potency was “inactive”.
% is scaled to controls: 0 for no effect and ±100 for the full control effect; potency is read from the fitted curve at half-maximal effect; tags tell the direction and shape of the fitted curve.
Also: nearly all actives have a fitted effect of over 50% in size.
